Test systems include MALME-3M melanoma; NCI/ADR-RES ovarian; CAKI-1 renal; CCRF-CEM leukemia; EKVX NSCLC; K-562 leukemia; LOX IMVI melanoma; MOLT-4 leukemia; NCI-H226 lung; NCI-H460 lung; OVCAR-4 ovarian; OVCAR-8 ovarian; RPMI-8226 leukemia; RXF 393 renal; SF-268 CNS; SF-539 CNS; SR leukemia; SW-620 colon; UO-31 renal; HCC-2998 colon; HCT-116 colon; HT29 colon; OVCAR-3 ovarian; SK-MEL-28 melanoma; U251 CNS; UACC-257 melanoma.

Test in all cases: NCI-60 cell line screen, 48 h

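Cultured in 96-well plates, cells were exposed to test compound for 48 hours across five concentrations. Here, GI50 denotes the concentration required for 50% inhibition of growth.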 The source holds more than one record for some entries. The list is limited to them. An entry can have further records. For some assays here: The tests behind the records often covered other concentration ranges, which the source does not state; some values may only mark the edge of a range. A tag in brackets gives the origin of a value. Letters hold for one entry only. For some assays here: Values that stand side by side repeat one measurement in other runs, samples, wells, individuals or studies.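 TGI marks complete inhibition of growth.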 Some results are limits rather than exact numbers.

On to `O=[N+]([O-])c1ccc(N=Nc2c(O)ccc3ccccc23)cc1`, for which the GI50 in the experiment with MALME-3M melanoma is 42.8 µM [sample A, 1 test] and 18.6 nM [sample B, 1 test]; with NCI/ADR-RES ovarian, 89.7 µM [sample A, 1 test] and 159 nM [sample B, 1 test]. Besides, the TGI was > 100 µM [sample A, 1 test] and 49 nM [sample B, 1 test] in the experiment on MALME-3M melanoma; > 100 µM [sample A, 1 test] and 647 nM [sample B, 1 test] with NCI/ADR-RES ovarian.

Regarding `CN(C)C1CCN(C(=O)c2ccc(NC(=O)Nc3ccc(-c4nc(N5CCOCC5)nc(N5CCOCC5)n4)cc3)cc2)CC1`, the TGI in the experiment on CAKI-1 renal was > 100 µM [sample A, mean of 2 tests] and 2.5 µM, 4.73 µM [sample B, 1 test]; in the experiment on CCRF-CEM leukemia, > 100 µM [sample A, mean of 2 tests] and 2.5 µM, > 10 µM [sample B, 1 test]; in the experiment on EKVX NSCLC, 166 nM [sample A, mean of 2 tests] and 2.5 µM, 1.24 µM [sample B, 1 test]; in the experiment with K-562 leukemia it was > 100 µM [sample A, 1 test] and 2.5 µM, > 10 µM [sample B, 1 test]; in the experiment on LOX IMVI melanoma, > 100 µM [sample A, 1 test] and 403 nM, 1.15 µM [sample B, 1 test]; in the experiment with MOLT-4 leukemia, > 100 µM [sample A, mean of 2 tests] and 2.5 µM, > 10 µM [sample B, 1 test]. The TGI with NCI-H460 lung is > 100 µM [sample A, mean of 2 tests] and 2.5 µM, 3.32 µM [sample B, 1 test]; in the experiment with OVCAR-4 ovarian, 27.7 nM [sample A, 1 test] and 155 nM, 322 nM [sample B, 1 test]; in the experiment with OVCAR-8 ovarian, 578 nM [sample A, 1 test] and 1.26 µM, 7.59 µM [sample B, 1 test]; with RPMI-8226 leukemia it was > 100 µM [sample A, 1 test] and 2.5 µM, 2.16 µM [sample B, 1 test]; in the experiment on RXF 393 renal, 230 nM [sample A, mean of 2 tests] and 618 nM, 2.52 µM [sample B, 1 test]; in the experiment with SF-268 CNS, > 37.1 µM [sample A, mean of 2 tests] and 2.5 µM, 4.79 µM [sample B, 1 test]. Besides, the TGI is 62.8 nM [sample A, mean of 2 tests] and 95.7 nM, 666 nM [sample B, 1 test] with SF-539 CNS; > 100 µM [sample A, 1 test] and 2.5 µM [sample B, 1 test] in the experiment with SR leukemia; > 100 µM [sample A, mean of 2 tests] and 2.5 µM, 4.19 µM [sample B, 1 test] in the experiment with SW-620 colon; > 100 µM [sample A, 1 test] and 2.5 µM, 6.16 µM [sample B, 1 test] in the experiment with UO-31 renal. Moreover, the GI50 with NCI-H226 lung was 18.5 nM [sample A, mean of 2 tests] and 149 nM, 12.1 nM [sample B, 1 test]; in the experiment on UO-31 renal, 2.32 µM [sample A, 1 test] and 908 nM, 169 nM [sample B, 1 test].

Regarding `Nc1cc(-c2cccc(OC(F)(F)F)c2)nc2ccc(N3CCCC3)cc12`, the TGI in the experiment on HCC-2998 colon is 1.67 µM [sample A, mean of 2 tests] and 2.38 µM [sample B, mean of 2 tests] and > 100 µM [sample C, mean of 2 tests]; with HCT-116 colon, 1.99 µM [sample A, mean of 2 tests] and > 40.5 µM [sample B, mean of 2 tests] and 24.8 µM [sample C, mean of 2 tests]; in the experiment on HT29 colon, 4.11 µM [sample A, mean of 2 tests] and > 100 µM [sample B, 1 test]; with K-562 leukemia, 3.47 µM [sample A, mean of 2 tests] and > 100 µM [sample B, mean of 2 tests] and 12 µM [sample C, mean of 2 tests]; in the experiment on LOX IMVI melanoma it was 1.86 µM [sample A, mean of 2 tests] and > 34.4 µM [sample B, mean of 2 tests] and > 100 µM [sample C, mean of 2 tests]; in the experiment on MALME-3M melanoma, 3.32 µM [sample A, 1 test] and 21.6 µM [sample B, mean of 2 tests] and > 100 µM [sample C, 1 test]. Further, the TGI was 5.79 µM [sample A, mean of 2 tests] and > 100 µM [sample B, mean of 2 tests] and 25.6 µM [sample C, mean of 2 tests] in the experiment on MOLT-4 leukemia; 3.94 µM [sample A, mean of 2 tests] and > 41.2 µM [sample B, mean of 2 tests] and > 60.2 µM [sample C, mean of 2 tests] in the experiment with OVCAR-3 ovarian; 3.76 µM [sample A, mean of 2 tests] and 21.6 µM [sample B, 1 test] and 50.8 µM [sample C, 1 test] in the experiment with SK-MEL-28 melanoma; > 100 µM [sample A, 1 test] and 1.16 µM [sample B, 1 test] and 1.23 µM [sample C, mean of 2 tests] in the experiment on SR leukemia; 5.79 µM [sample A, mean of 2 tests] and > 100 µM [sample B, mean of 2 tests] and > 100 µM [sample C, mean of 2 tests] in the experiment with U251 CNS; 4.41 µM [sample A, mean of 2 tests] and > 67.7 µM [sample B, mean of 2 tests] and > 100 µM [sample C, mean of 2 tests] in the experiment with UACC-257 melanoma. Also, in the experiment on UACC-257 melanoma, the GI50 is 1.46 µM [sample A, mean of 2 tests] and 11.4 µM [sample B, mean of 2 tests] and > 52.3 µM [sample C, mean of 2 tests].

Source of the values: PubChem BioAssay (NCI).
